In PMC8560763, “Roles of metal ions in the selective inhibition of oncogenic variants of isocitrate dehydrogenase 1” (Communications Biology, 2021):
Several values for one entry are separate records, joined by “and”; a condition that tells them apart may be missing. Equal entries are not always repeated. One block for each compound: values may come before it.

How the values were obtained:
R132H IDH1 [1] = target: T1, R132H IDH1 (Homo sapiens, UniProt O75874, R132H); test: Differential scanning fluorimetry (DSF) thermal shift, R132H IDH1; assay type: binding; details: 50 mM Tris-HCl, pH 7.5; for thermal stabilisation by cosubstrates: R132H IDH1, 0.125—4 mM
T1 construct: made in house; host or cells: Escherichia coli BL21(DE3) pLyS

R132H IDH1 [2] = target: T1, R132H IDH1; test: Absorbance assay: kinetics of oxidative reaction (isocitrate to 2OG) by R132H IDH1; assay type: biochemical
R132H IDH1 [3] = target: T1, R132H IDH1; test: Absorbance assay: kinetics of reductive reaction (2OG to 2HG) by R132H IDH1; assay type: biochemical
R132H IDH1 [4] = target: T1, R132H IDH1; test: Absorbance assay: effect of metal ions on catalysis and inhibition of R132H IDH1; assay type: biochemical; details: for inhibition by metal ion: R132H IDH1, metal ions 10 mM in the presence of 10 mM Mg^2+
[5] = R132H IDH1, oxidative reaction with Mn^2+ (10 mM MnCl2)

T1 sequence (O75874 2-414 R132H): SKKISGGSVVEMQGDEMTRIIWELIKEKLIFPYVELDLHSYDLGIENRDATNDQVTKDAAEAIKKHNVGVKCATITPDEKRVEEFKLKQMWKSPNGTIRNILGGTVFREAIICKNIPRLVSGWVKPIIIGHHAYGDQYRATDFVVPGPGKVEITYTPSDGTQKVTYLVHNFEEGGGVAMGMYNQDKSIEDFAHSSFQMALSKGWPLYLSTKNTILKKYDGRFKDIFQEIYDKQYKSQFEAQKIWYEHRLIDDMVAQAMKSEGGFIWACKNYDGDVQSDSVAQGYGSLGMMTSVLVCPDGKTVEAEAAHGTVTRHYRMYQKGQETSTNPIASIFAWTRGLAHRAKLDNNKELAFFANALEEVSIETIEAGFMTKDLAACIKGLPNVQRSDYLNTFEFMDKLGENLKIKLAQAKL

thermal shift (shift in Tm) (R132H IDH1 [1]; R132H IDH1, divalent metal ions (5 mM)): destabilise
Velocity (R132H IDH1 [2]; Fig. S3f, [MnCl2] 10000 μM): 0.2935 µM/s and 0.2482 µM/s
kcat (R132H IDH1 [2]; R132H IDH1, oxidative reaction with Mn^2+): 0.78 ± 0.08 s⁻¹
Km (R132H IDH1 [2]; [5]): 1640 µM
Vmax (R132H IDH1 [2]; [5]): 290 ± 12 nM/s
Velocity (R132H IDH1 [3]; Fig. S3i, [MnCl2] 781.25 μM): 0.3293 µM/s and 0.3111 µM/s
fold difference in KM between R132H IDH1 and wt IDH1 (R132H IDH1 [3]; MnCl2 substituted for MgCl2): 210 fold
Vmax (R132H IDH1 [3]; R132H IDH1, reductive reaction (2OG to 2HG) with Mn^2+ (10 mM MnCl2)): 421 ± 18 nM/s
Km (R132H IDH1 [3]; R132H IDH1, reductive reaction (2OG to 2HG) with Mn^2+ (10 mM MnCl2), read-out: KM): 422 ± 67 µM
kcat (R132H IDH1 [3]; R132H IDH1, reductive reaction with Mn^2+): 1.04 ± 0.05 s⁻¹
effect of metal ion on catalysis (R132H IDH1 [4]; R132H IDH1, metal ions 10 mM): promoted
Compound: [Cl][Mn][Cl] [MnCl2]
Velocity (R132H IDH1 [2]; Fig. S3f, [MnCl2] 156.25 μM): 0.03395 µM/s and 0.03606 µM/s and 0.03632 µM/s
Velocity (R132H IDH1 [2]; Fig. S3f, [MnCl2] 312.5 μM): 0.04764 µM/s and 0.03843 µM/s and 0.04264 µM/s
Velocity (R132H IDH1 [2]; Fig. S3f, [MnCl2] 625 μM): 0.07633 µM/s and 0.05185 µM/s and 0.07475 µM/s
Velocity (R132H IDH1 [2]; Fig. S3f, [MnCl2] 2500 μM): 0.1927 µM/s and 0.1814 µM/s and 0.1819 µM/s
Velocity (R132H IDH1 [2]; Fig. S3f, [MnCl2] 5000 μM): 0.258 µM/s and 0.2416 µM/s and 0.2414 µM/s
Velocity (R132H IDH1 [2]; Fig. S3f, [MnCl2] 20000 μM): 0.2324 µM/s and 0.2377 µM/s and 0.2408 µM/s
Velocity (R132H IDH1 [3]; Fig. S3i, [MnCl2] 97.6562 μM): 0.03678 µM/s and 0.04058 µM/s and 0.04458 µM/s
Velocity (R132H IDH1 [3]; Fig. S3i, [MnCl2] 195.312 μM): 0.1163 µM/s and 0.1054 µM/s and 0.08996 µM/s
Velocity (R132H IDH1 [3]; Fig. S3i, [MnCl2] 390.625 μM): 0.2431 µM/s and 0.2191 µM/s and 0.2481 µM/s
Velocity (R132H IDH1 [3]; Fig. S3i, [MnCl2] 1562.5 μM): 0.3658 µM/s and 0.3408 µM/s and 0.3418 µM/s
Velocity (R132H IDH1 [3]; Fig. S3i, [MnCl2] 3125 μM): 0.3696 µM/s and 0.346 µM/s and 0.3834 µM/s
Velocity (R132H IDH1 [3]; Fig. S3i, [MnCl2] 6250 μM): 0.3348 µM/s and 0.3914 µM/s and 0.3726 µM/s

thermal stabilisation by cosubstrates (R132H IDH1 [1]): stabilise
Compound: NC(=O)C1=CN([C@@H]2O[C@H](COP(=O)(O)OP(=O)(O)OC[C@H]3O[C@@H](n4cnc5c(N)ncnc54)[C@H](OP(=O)(O)O)[C@@H]3O)[C@@H](O)[C@H]2O)C=CC1 [NADPH]
Velocity (R132H IDH1 [3]; Fig. S2k, [NADPH] 3.125 μM): 0.02509 µM/s and 0.02983 µM/s and 0.0179 µM/s
Velocity (R132H IDH1 [3]; Fig. S2k, [NADPH] 6.25 μM): 0.06194 µM/s and 0.063 µM/s and 0.05106 µM/s
Velocity (R132H IDH1 [3]; Fig. S2k, [NADPH] 25 μM): 0.2114 µM/s and 0.2116 µM/s and 0.2079 µM/s
Velocity (R132H IDH1 [3]; Fig. S2k, [NADPH] 50 μM): 0.2271 µM/s and 0.1953 µM/s and 0.2485 µM/s
Velocity (R132H IDH1 [3]; Fig. S2k, [NADPH] 100 μM): 0.2482 µM/s and 0.219 µM/s and 0.2464 µM/s
Velocity (R132H IDH1 [3]; Fig. S2k, [NADPH] 200 μM): 0.2183 µM/s and 0.293 µM/s and 0.2158 µM/s
Velocity (R132H IDH1 [3]; Fig. S2k, [NADPH] 400 μM): 0.2857 µM/s and 0.2293 µM/s and 0.2699 µM/s
Velocity (R132H IDH1 [3]; Fig. S3h, MnCl2 as metal, [NADPH] 6.25 μM): 0.04817 µM/s and 0.03132 µM/s and 0.02448 µM/s
Velocity (R132H IDH1 [3]; Fig. S3h, MnCl2 as metal, [NADPH] 25 μM): 0.2282 µM/s and 0.2424 µM/s and 0.2506 µM/s
Velocity (R132H IDH1 [3]; Fig. S3h, MnCl2 as metal, [NADPH] 50 μM): 0.293 µM/s and 0.3151 µM/s and 0.2403 µM/s
Velocity (R132H IDH1 [3]; Fig. S3h, MnCl2 as metal, [NADPH] 100 μM): 0.3353 µM/s and 0.3893 µM/s and 0.3022 µM/s
Velocity (R132H IDH1 [3]; Fig. S3h, MnCl2 as metal, [NADPH] 200 μM): 0.3656 µM/s and 0.3853 µM/s and 0.3403 µM/s
Velocity (R132H IDH1 [3]; Fig. S3h, MnCl2 as metal, [NADPH] 400 μM): 0.383 µM/s and 0.4209 µM/s and 0.3522 µM/s

thermal stabilisation by cosubstrates (R132H IDH1 [1]): stabilise
Compound: NC(=O)c1ccc[n+](C2OC(COP(=O)(O)OP(=O)([O-])OCC3OC(n4cnc5c(N)ncnc54)C(OP(=O)(O)O)C3O)C(O)C2O)c1 (centres unmarked) [NADP^+]
Velocity (R132H IDH1 [2]; Fig. S3e, MnCl2 as metal, [NADP+] 9.375 μM): 0.0537 µM/s and 0.04133 µM/s and 0.04633 µM/s
Velocity (R132H IDH1 [2]; Fig. S3e, MnCl2 as metal, [NADP+] 18.75 μM): 0.08186 µM/s and 0.06791 µM/s and 0.07949 µM/s
Velocity (R132H IDH1 [2]; Fig. S3e, MnCl2 as metal, [NADP+] 37.5 μM): 0.114 µM/s and 0.1034 µM/s and 0.09713 µM/s
Velocity (R132H IDH1 [2]; Fig. S3e, MnCl2 as metal, [NADP+] 75 μM): 0.1466 µM/s and 0.1366 µM/s and 0.1263 µM/s
Velocity (R132H IDH1 [2]; Fig. S3e, MnCl2 as metal, [NADP+] 150 μM): 0.1916 µM/s and 0.1624 µM/s and 0.1732 µM/s
Velocity (R132H IDH1 [2]; Fig. S3e, MnCl2 as metal, [NADP+] 300 μM): 0.2479 µM/s and 0.2264 µM/s and 0.2166 µM/s
Velocity (R132H IDH1 [2]; Fig. S3e, MnCl2 as metal, [NADP+] 600 μM): 0.3103 µM/s and 0.2782 µM/s and 0.2574 µM/s
Velocity (R132H IDH1 [2]; Fig. S3e, MnCl2 as metal, [NADP+] 1200 μM): 0.2951 µM/s and 0.2651 µM/s and 0.2961 µM/s
Velocity (R132H IDH1 [2]; Fig. S2h, [NADP+] 4.6875 μM): 0.01246 µM/s and 0.01299 µM/s and 0.01018 µM/s
Velocity (R132H IDH1 [2]; Fig. S2h, [NADP+] 18.75 μM): 0.03141 µM/s and 0.02737 µM/s and 0.02492 µM/s
Velocity (R132H IDH1 [2]; Fig. S2h, [NADP+] 37.5 μM): 0.03246 µM/s and 0.03299 µM/s and 0.03369 µM/s
Velocity (R132H IDH1 [2]; Fig. S2h, [NADP+] 75 μM): 0.03861 µM/s and 0.03088 µM/s and 0.03352 µM/s
Velocity (R132H IDH1 [2]; Fig. S2h, [NADP+] 150 μM): 0.04141 µM/s and 0.03474 µM/s and 0.03738 µM/s
Velocity (R132H IDH1 [2]; Fig. S2h, [NADP+] 300 μM): 0.04018 µM/s and 0.03562 µM/s and 0.03773 µM/s
Velocity (R132H IDH1 [2]; Fig. S2h, [NADP+] 600 μM): 0.04247 µM/s and 0.04194 µM/s and 0.03808 µM/s
Velocity (R132H IDH1 [2]; Fig. S2h, [NADP+] 1200 μM): 0.04247 µM/s and 0.03632 µM/s and 0.04124 µM/s
Velocity (R132H IDH1 [2]; Fig. S2h, [NADP+] 2400 μM): 0.04001 µM/s and 0.04054 µM/s and 0.0372 µM/s

inhibition by metal ion (R132H IDH1 [4]): inhibited
Compound: [Na+] [Na^+]

Compound: [Cl][Ni][Cl] [Ni^2+, NiCl2]
inhibition by metal ion (R132H IDH1 [4]): inhibitory

inhibition by metal ion (R132H IDH1 [4]): inhibiting
Compound: [Cl-].[Cl-].[Sr+2] [Sr^2+, SrCl2]

inhibition by metal ion (R132H IDH1 [4]): inhibitory
Compound: [Cl-].[Cl-].[Zn+2] [Zn^2+, ZnCl2]
